Results: the supplement of paper PMC12217912
Some of the results follow. Sequences were assembled here from the parent chain. Values near 0.05 are background.

B1: TEV protease; numbered along this chain (parent)
chain: MGESLFKGPRDYNPISSSICHLTNESDGHTTSLYGIGFGPFIITNKHLFRRNNGTLVVQSLHGVFKVKDTTTLQQHLVDGRDMIIIRMPKDFPPFPQKLKFREPQREERICLVTTNFQTKSMSSMVSDTSCTFPSGDGIFWKHWIQTKDGQCGSPLVSTRDGFIVGIHSASNFTNTNNYFTSVPKNFMELLTNQEAQQWVSGWRLNADSVLWGGHKVFMVKPEEPFQPVKEATQL

Variants of: B1
Test: raw area under fraction-flipped curve 0-4 h after induction (AUC4h, not background-subtracted), DNA-recorder readout of cleavage of the substrate (dimensionless); higher = more cleavage of the substrate by the protease variant
Conditions: temperature: 34 °C; time window: 0-4 h after rhamnose induction
Description: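 In vivo DNA recorder in E. coli TOP10(DE3) ΔrhaA at 34 °C. Each TEVp single-site mutant (parent TEVp 0) is paired with a single-site variant of the 7-mer TEVs (canonical ENLYFQ|S). The substrate sits between flexible linkers in a Bxb1-sfGFP-TEVs-SsrA fusion, so cleavage stabilises Bxb1 and speeds flipping of a recombination array, read by NGS. The value is the raw area under the fraction-flipped curve over 0-4 h after rhamnose induction (AUC4h), with ≥20 reads per time point. It is not background-subtracted; inactive controls average about 0.047.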
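Also: Bxb1 expression induced with 0.2% (w/v) L-rhamnose at OD600 near 0.5, cultures sampled hourly, flipped fraction per protease–substrate barcode pair counted by paired-end Illumina sequencing.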

Variant | area with substrate ENLYFCS | area with substrate ENLYFES | area with substrate ENLYFFS | area with substrate ENLYFGS | area with substrate ENLYFIS | area with substrate ENLYFKS | area with substrate ENLYFLS | area with substrate ENLYFMS | area with substrate ENLYFNS | area with substrate ENLYFPS | area with substrate ENLYFRS | area with substrate ENLYFTS | area with substrate ENLYFVS | area with substrate ENLYFWS | area with substrate ENLYFYS | area with substrate ENLYFDS | area with substrate ENLYFHS | area with substrate ENLYFSS
MGESLFKGPRDYNPISSSICHLTNESDGHTTSLYGIGFGPFIITNKHLFRRNNGTLVVQSLHGVFKVKDTTTLQQHLVDGRDMIIIRMPKDFPPFPQKLKFREPQREERICLVTTNFQTKSMSSMVSDTSCTSPSGDGIFWKHWIQTKDGQCGSPLVSTRDGFIVGIHSASNFTNTNNYFTSVPKNFMELLTNQEAQQWVSGWRLNADSVLWGGHKVFMVKPEEPFQPVKEATQL [F133S] | 0.0579 | 0.0623 | 0.0731 | 0.0691 | 0.0633 | 0.0579 | 0.0642 | 0.0573 | 0.0644 | 0.0641 | 0.0775 | 0.0795 | 0.0702 | 0.0568 | 0.0647 |  |  | 
MGESLFKGPRDYNPISSSICHLTNESDGHTTSLYGIGFGPFIITNKHLFRRNNGTLVVQSLHGVFKVKDTTTLQQHLVDGRDMIIIRMPKDFPPFPQKLKFREPQREERICLVTTNFQTKSMLSMVSDTSCTFPSGDGIFWKHWIQTKDGQCGSPLVSTRDGFIVGIHSASNFTNTNNYFTSVPKNFMELLTNQEAQQWVSGWRLNADSVLWGGHKVFMVKPEEPFQPVKEATQL [S123L] | 0.0568 | 0.0597 |  |  | 0.05 |  |  | 0.0658 | 0.0715 | 0.0531 |  | 0.0662 |  | 0.0404 | 0.0511 |  |  | 
MGESLFKGPRDYNPISSSICHLTNESDGHTTSLYGIGFGPFIITNKHLFRRNNGTLVVQSLHGVFKVKDTTTLQQHLVDGRDMIIIRMPKDFPPFPQKLKFREPQREERICLVTTNFQTKSMSSMVSDTSCTFPSGDGIFWKHWAQTKDGQCGSPLVSTRDGFIVGIHSASNFTNTNNYFTSVPKNFMELLTNQEAQQWVSGWRLNADSVLWGGHKVFMVKPEEPFQPVKEATQL [I145A] | 0.0584 | 0.0625 | 0.0828 |  | 0.0499 | 0.0674 | 0.0487 | 0.0887 |  | 0.0773 | 0.0616 | 0.0581 |  |  |  |  |  | 
MGESLFKGPRDYNPISSSICHLTNESDGHTTSLYGIGFGPFIITNKHLFRRNNGTLVVQSLHGVFKVKDTTTLQQHLVDGRDMIIIRMPKDFPPFPQKLKFREPQREERICLVTINFQTKSMSSMVSDTSCTFPSGDGIFWKHWIQTKDGQCGSPLVSTRDGFIVGIHSASNFTNTNNYFTSVPKNFMELLTNQEAQQWVSGWRLNADSVLWGGHKVFMVKPEEPFQPVKEATQL [T115I] | 0.0552 |  |  | 0.0862 | 0.0584 | 0.0557 |  |  | 0.0833 | 0.0638 |  | 0.048 | 0.0549 | 0.0564 |  |  |  | 
MGESLFKGPRDYNPISSSICHLTNESDGHTTSLYGIGFGPFIITNKHLFRRNNGTLVVQSLHGVFKVKDTTTLQQHLVDGRDMIIIRMPKDFPPFPQKLKFREPQREERICLVTTNFQTKSMSSMVSDTSCTFMSGDGIFWKHWIQTKDGQCGSPLVSTRDGFIVGIHSASNFTNTNNYFTSVPKNFMELLTNQEAQQWVSGWRLNADSVLWGGHKVFMVKPEEPFQPVKEATQL [P134M] | 0.0513 | 0.0757 | 0.0756 | 0.0629 | 0.0614 |  |  |  |  | 0.0482 | 0.0507 | 0.063 |  | 0.0613 |  | 0.0484 | 0.0554 | 
MGESLFKGPRDYNPISSSICHLTNESDGHTTSLYGIGFGPFIITNKHLFRRNNGTLVVQSLHGVFKVKDTTTLQQHLVDGRDMIIIRMPKDFPPFPQKLKFREPQREERICLVTTNFQTKSMSSMVSDTSCTFPSGDGIFWKHWIQTKDGQCGSPLVSTRDTFIVGIHSASNFTNTNNYFTSVPKNFMELLTNQEAQQWVSGWRLNADSVLWGGHKVFMVKPEEPFQPVKEATQL [G162T] | 0.0379 |  | 0.0606 |  | 0.0686 | 0.0462 |  | 0.0588 | 0.056 | 0.0669 |  | 0.0635 |  | 0.0552 |  |  |  | 0.0633
MGESLFKGPRDYNPISSSICHLTNESDGHTTSLYGIGFGPFIITNKHLFRRNNGTLVVQSLHGVFKVKDTTTLQQHLVDGRDMIIIRMPKDFPPFPQKLKFREPQREERICLVTTNFQTKSMSSMVSDTSCTFPSGDGIFWKHWIQTKAGQCGSPLVSTRDGFIVGIHSASNFTNTNNYFTSVPKNFMELLTNQEAQQWVSGWRLNADSVLWGGHKVFMVKPEEPFQPVKEATQL [D149A] | 0.0625 |  | 0.0633 | 0.0501 | 0.0299 | 0.0602 | 0.0716 | 0.0662 | 0.0679 | 0.0577 |  | 0.0632 | 0.0673 | 0.044 | 0.0627 |  | 0.046 | 0.0651
MGESLFKGPRDYNPISSSICHLTNESDGHTTSLYGIGFGPFIITNKHLFRRNNGTLVVQSLHGVFKVKDTTTLQQHLVDGRDMIIIRMPKDFPPFPQKLKFREPQREERICLVTTNFQTKSMSSMVSDTSCTFPSGDGIFWKHWIQTKDGKCGSPLVSTRDGFIVGIHSASNFTNTNNYFTSVPKNFMELLTNQEAQQWVSGWRLNADSVLWGGHKVFMVKPEEPFQPVKEATQL [Q151K] | 0.0668 |  | 0.0563 |  | 0.0472 |  |  | 0.0444 | 0.0636 | 0.0528 | 0.0593 | 0.0489 |  | 0.0481 | 0.0534 | 0.0426 | 0.056 | 0.0575
